Results as given in a collection of fitness landscapes (doi:10.1126/science.1257360).
This is one part of the list.

B1: PhoQ; a variant is named by its letters at X, in order, P23837 (parent)
chain: MKKLLRLFFPLSLRVRFLLATAAVVLVLSLAYGMVALIGYSVSFDKTTFRLLRGESNLFYTLAKWENNKLHVELPENIDKQSPTMTLIYDENGQLLWAQRDVPWLMKMIQPDWLKSNGFHEIEADVNDTSLLLSGDHSIQQQLQEVREDDDDAEMTHSVAVNVYPATSRMPKLTIVVVDTIPVELKSSYMVWSWFIYVLSANLLLVIPLLWVAAWWSLRPIEALAKEVRELEEHNRELLNPATTRELTSLVRNLNRLLKSERERYDKYRTTLTDLTHSLKTPLXXLQXXLRSLRSEKMSVSDAEPVMLEQISRISQQIGYYLHRASMRGGTLLSRELHPVAPLLDNLTSALNKVYQRKGVNISLDISPEISFVGEQNDFVEVMGNVLDNACKYCLEFVEISARQTDEHLYIVVEDDGPGIPLSKREVIFDRGQRVDTLRPGQGVGLAVAREITEQYEGKIVAGESMLGGARMEVIFGRQHSAPKDE

Variants of: B1
Assay: enrichment ratio after two sorts for PhoP signalling (ratio (wild type AVST 3.29)); higher = more functional
Settings: with PhoP (E. coli)

Variant | enrichment ratio
LYWE | ≤ 0.25
TWIA | ≤ 0.25
FRPA | ≤ 0.25
YENI | ≤ 0.25
MCSM | 6.97
PYVF | ≤ 0.25
ICYP | ≤ 0.25
WQTV | ≤ 0.25
RMSQ | ≤ 0.25
MFNY | ≤ 0.25
RWIF | ≤ 0.25
GEGG | ≤ 0.25
PGAT | ≤ 0.25
WPIS | ≤ 0.25
EKAT | ≤ 0.25
VVVH | ≤ 0.25
KPKV | ≤ 0.25
FQRV | ≤ 0.25
FTNY | ≤ 0.25
HYCD | ≤ 0.25
YHMT | ≤ 0.25
MCQQ | ≤ 0.25
GIVG | 10.4
ARVI | 1.58

Variant | enrichment ratio
IWMR | ≤ 0.25
RRAP | ≤ 0.25
IKLS | ≤ 0.25
VVMS | ≤ 0.25
FNDC | ≤ 0.25
DRNQ | ≤ 0.25
YEGP | ≤ 0.25
DRSC | 0.882
GIGD | ≤ 0.25
NQGH | ≤ 0.25
WEMV | ≤ 0.25
FPVT | 0.751
HDQG | ≤ 0.25
VPKD | ≤ 0.25
WFYY | ≤ 0.25
RFSN | 0.949
NIVL | ≤ 0.25
EMRL | ≤ 0.25
QAVG | ≤ 0.25
SWAP | ≤ 0.25
WWPR | ≤ 0.25
VYYA | ≤ 0.25
VKNK | ≤ 0.25
GFWL | ≤ 0.25

Variant | enrichment ratio
WDMG | ≤ 0.25
LVPR | ≤ 0.25
LMYA | ≤ 0.25
RMPR | ≤ 0.25
IHNT | ≤ 0.25
MRNW | ≤ 0.25
DGPA | ≤ 0.25
SGQE | ≤ 0.25
EPIN | ≤ 0.25
HNNG | ≤ 0.25
NPYT | ≤ 0.25
GGFH | ≤ 0.25
FEMF | ≤ 0.25
VIEF | ≤ 0.25
HLYP | ≤ 0.25
MSTY | 2.56
EPWS | ≤ 0.25
SKLF | 11
DSVF | ≤ 0.25
NDTN | ≤ 0.25
LLSD | ≤ 0.25
NRYW | ≤ 0.25
WYHH | ≤ 0.25
SVTM | 14.7

Variant | enrichment ratio
KCER | ≤ 0.25
FDYC | ≤ 0.25
WQIY | ≤ 0.25
IGDN | ≤ 0.25
KTFQ | ≤ 0.25
DERN | ≤ 0.25
RYRK | ≤ 0.25
FKRG | ≤ 0.25
CFFA | ≤ 0.25
HIFT | ≤ 0.25
HYIK | ≤ 0.25
WICA | 0.253
HQQE | ≤ 0.25
NPGQ | ≤ 0.25
MKLV | 9.89
FWVN | ≤ 0.25
YDGH | ≤ 0.25
NTLN | ≤ 0.25
SPKA | ≤ 0.25
KTWA | ≤ 0.25
SVRY | ≤ 0.25
QCYK | ≤ 0.25
PYFL | ≤ 0.25
YYKM | ≤ 0.25

Variant | enrichment ratio
AMIL | 4.07
VGMK | ≤ 0.25
FEWC | ≤ 0.25
KGAY | ≤ 0.25
YYKP | ≤ 0.25
ICQT | ≤ 0.25
GKPQ | ≤ 0.25
VTGK | ≤ 0.25
RAVK | ≤ 0.25
PIHC | ≤ 0.25
QKPY | ≤ 0.25
KEAI | ≤ 0.25
GESS | 5.41
QCRS | ≤ 0.25
PTFG | ≤ 0.25
QDYY | ≤ 0.25
KRCW | ≤ 0.25
YVHI | ≤ 0.25
PWVL | ≤ 0.25
GTIH | ≤ 0.25
DCRW | ≤ 0.25
QIRN | ≤ 0.25
GFYK | ≤ 0.25
DNLS | ≤ 0.25

Variant | enrichment ratio
TDFH | ≤ 0.25
VMLK | ≤ 0.25
KGLR | ≤ 0.25
QDYV | ≤ 0.25
ISRY | ≤ 0.25
YTQL | ≤ 0.25
GLNY | ≤ 0.25
VERQ | ≤ 0.25
DIWR | ≤ 0.25
PPHD | ≤ 0.25
FMDQ | ≤ 0.25
LYWA | ≤ 0.25
GQCL | 7.51
NFVA | ≤ 0.25
CFFQ | ≤ 0.25
KYEG | ≤ 0.25
WQHI | ≤ 0.25
TIMH | ≤ 0.25
QVYS | ≤ 0.25
EKMC | ≤ 0.25
VSTS | ≤ 0.25
TRSW | ≤ 0.25
WFTR | ≤ 0.25
WYFR | ≤ 0.25

Variant | enrichment ratio
ESMW | ≤ 0.25
TYFR | ≤ 0.25
AAPY | ≤ 0.25
KCPP | ≤ 0.25
YNFY | ≤ 0.25
VCSM | 3.67
IMNR | ≤ 0.25
KCVN | ≤ 0.25
ICPL | ≤ 0.25
RDCN | ≤ 0.25
YTKW | ≤ 0.25
IVWI | ≤ 0.25
QQGN | ≤ 0.25
GMDT | ≤ 0.25
LKWM | ≤ 0.25
EQMN | ≤ 0.25
VCMD | ≤ 0.25
PVQG | ≤ 0.25
AWAK | ≤ 0.25
YKGS | ≤ 0.25
EPCF | ≤ 0.25
PKQE | ≤ 0.25
AYMY | ≤ 0.25
IINP | ≤ 0.25

Variant | enrichment ratio
EDGV | ≤ 0.25
AINQ | ≤ 0.25
AEGK | ≤ 0.25
HPAG | ≤ 0.25
ESTN | ≤ 0.25
TPVM | ≤ 0.25
MINM | ≤ 0.25
EANI | ≤ 0.25
GCVF | ≤ 0.25
KYTY | ≤ 0.25
NQGM | ≤ 0.25
SSSD | ≤ 0.25
HINL | ≤ 0.25
AFQA | ≤ 0.25
TSQM | 24
IESR | ≤ 0.25
KRKI | ≤ 0.25
LCPC | ≤ 0.25
KALQ | ≤ 0.25
NCAY | ≤ 0.25
MLQV | ≤ 0.25
YSFV | ≤ 0.25
LATT | ≤ 0.25
VFWY | ≤ 0.25

Variant | enrichment ratio
EIYA | ≤ 0.25
PVRL | ≤ 0.25
YIAS | 0.335
ISPQ | ≤ 0.25
AQNP | ≤ 0.25
GHIG | ≤ 0.25
VNST | ≤ 0.25
RSHH | 0.726
YQHT | ≤ 0.25
WWAG | ≤ 0.25
ADCV | ≤ 0.25
YSGI | ≤ 0.25
ATYV | 0.444
RIVR | ≤ 0.25
VYLN | ≤ 0.25
FSSD | ≤ 0.25
KNQF | ≤ 0.25
YQET | ≤ 0.25
RYAE | ≤ 0.25
KMKF | ≤ 0.25
KYDE | ≤ 0.25
QRLR | ≤ 0.25
WGRS | ≤ 0.25
QLQG | ≤ 0.25

Variant | enrichment ratio
QGNI | ≤ 0.25
LLVV | ≤ 0.25
PACP | ≤ 0.25
TNSF | 7.97
YFQV | ≤ 0.25
KGVM | ≤ 0.25
DSWQ | ≤ 0.25
AEIV | 4.76
SAHP | ≤ 0.25
TEFI | 9.19
TQFM | 6.61
YNTS | ≤ 0.25
DVDY | ≤ 0.25
HMFL | ≤ 0.25
SSWD | ≤ 0.25
NGFQ | ≤ 0.25
QGEY | ≤ 0.25
YNLQ | ≤ 0.25
FCIY | ≤ 0.25
RCSR | ≤ 0.25
NWTM | ≤ 0.25
VFAA | ≤ 0.25
GWIH | ≤ 0.25
PAWI | ≤ 0.25

Variant | enrichment ratio
LHRR | ≤ 0.25
IKAE | ≤ 0.25
KDSM | ≤ 0.25
FNGT | ≤ 0.25
MDCR | ≤ 0.25
PPSK | ≤ 0.25
PTSG | ≤ 0.25
KGTG | ≤ 0.25
SIAA | 10.3
RLTW | ≤ 0.25
GGIN | ≤ 0.25
FHIN | ≤ 0.25
WSAW | ≤ 0.25
GDWQ | ≤ 0.25
NSRC | ≤ 0.25
EVAH | ≤ 0.25
KNEY | ≤ 0.25
DTCP | ≤ 0.25
GPLP | ≤ 0.25
NAEG | ≤ 0.25
FDVQ | ≤ 0.25
MRSY | ≤ 0.25
EMHG | ≤ 0.25
ESPT | ≤ 0.25

Variant | enrichment ratio
PNSS | ≤ 0.25
KTDI | ≤ 0.25
SIIP | ≤ 0.25
SFMF | ≤ 0.25
HKYP | ≤ 0.25
GYNS | ≤ 0.25
SSGS | 8.94
IEAV | ≤ 0.25
HDLS | ≤ 0.25
LGQC | ≤ 0.25
KFNG | ≤ 0.25
QCPV | ≤ 0.25
LSAN | ≤ 0.25
MRWG | ≤ 0.25
FGGG | ≤ 0.25
PCWK | ≤ 0.25
LVMC | ≤ 0.25
AVTF | 11.4
RSEY | ≤ 0.25
TAGI | 13.1
ITET | ≤ 0.25
DPHK | ≤ 0.25
GEWF | ≤ 0.25
LAEW | ≤ 0.25

Variant | enrichment ratio
HQTF | ≤ 0.25
LNVC | ≤ 0.25
APCR | ≤ 0.25
EVDL | ≤ 0.25
VHRI | ≤ 0.25
PWGL | ≤ 0.25
RWVG | ≤ 0.25
KHPT | ≤ 0.25
NVYI | ≤ 0.25
YNTA | ≤ 0.25
SIEI | ≤ 0.25
QGYR | ≤ 0.25
LGLT | ≤ 0.25
QKTK | ≤ 0.25
PQAG | ≤ 0.25
DCLQ | ≤ 0.25
SMVE | 5.68
ALKG | ≤ 0.25
